# Laboratory results from the supplement of paper PMC9446081.
# Among all 39,000 compounds or so, about 220 (0.56%) showed activity. The list shows a part of the results.
# Test system: Escherichia coli K-12 BW25113
# Experiment: relative growth (OD600 normalised to plate interquartile mean) (fraction); higher = less growth inhibition, active = 0.2 or less
# Details: 50 µM; LB; incubation time: overnight (16-24 h)
# 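Also: static incubation at 37 °C against the wild-type strain, values averaged over two biological replicates.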
row,SMILES,relative growth
1,C[C@H]1CCCCO[C@@H](CN(C)C(=O)Cc2ccccc2)[C@@H](C)CN([C@@H](C)CO)C(=O)c2cc(NC(=O)c3ccccc3)ccc2O1,inactive: 0.978
2,COc1cccc(C#Cc2ccc3c(c2)O[C@H](CN(C)C(=O)CN2CCOCC2)[C@H](C)CN([C@@H](C)CO)S3(=O)=O)c1,inactive: 1
3,CO[C@H]1CN(C)C(=O)c2ccc(NS(C)(=O)=O)cc2OC[C@H](C)N(C(=O)C2CCOCC2)C[C@H]1C,inactive: 0.998
4,C[C@H](CO)N1C[C@H](C)[C@H](CN(C)Cc2ccc(C(=O)O)cc2)Oc2ccc(NS(=O)(=O)c3cn(C)cn3)cc2C1=O,inactive: 1.02
5,C[C@@H]1CCCCO[C@H](CN(C)S(=O)(=O)c2ccccc2)[C@H](C)CN([C@@H](C)CO)C(=O)c2cc(NC(=O)CCC(F)(F)F)ccc2O1,inactive: 0.995
6,C[C@@H]1CN([C@@H](C)CO)C(=O)c2cc(NC(=O)CCN3CCOCC3)ccc2O[C@@H]1CN(C)CC1CC1,inactive: 1
7,C[C@@H]1CN([C@H](C)CO)C(=O)c2cc(NS(C)(=O)=O)ccc2O[C@@H](C)CCCCO[C@H]1CN(C)CC1CC1,inactive: 0.993
8,Cc1ccc(S(=O)(=O)Nc2ccc3c(c2)CC(=O)N([C@@H](C)CO)C[C@H](C)[C@@H](CN(C)Cc2ccncc2)O3)cc1,inactive: 1.01
9,OC[C@H]1NC[C@H](O)[C@@H](O)[C@@H]1O,inactive: 1.02
10,C[C@H](CO)N1C[C@H](C)[C@@H](CN(C)Cc2ccc(C(F)(F)F)cc2)Oc2c(NC(=O)c3nc4ccccc4s3)cccc2C1=O,inactive: 0.976
11,COc1cccc(NC(=O)N2C[C@H](O)COC[C@@H]3O[C@@H](CC(=O)NC4Cc5ccccc5C4)CC[C@H]32)c1,inactive: 1.02
12,C[C@H](CO)N1C[C@H](C)[C@@H](CN(C)C(=O)Nc2cccc3ccccc23)Oc2ccc(NC(=O)Cc3cn(C)c4ccccc34)cc2C1=O,inactive: 1.02
13,Cc1ccc(S(=O)(=O)Nc2ccc3c(c2)CC(=O)N([C@@H](C)CO)C[C@H](C)[C@H](CN(C)Cc2ccc(-c4ccccc4)cc2)O3)cc1,inactive: 1.01
14,COc1ccc(C2=NS(=O)(=O)N(C)C(C(=O)N3CCC(C(N)=O)CC3)=C2)cc1,inactive: 1
15,C[C@H](CO)N1C[C@H](C)[C@@H](CN(C)S(=O)(=O)c2cn(C)cn2)Oc2ccc(NC(=O)CCCCCC(=O)Nc3ccccc3N)cc2CC1=O,inactive: 0.993
16,NC/C=C\C(=O)O,inactive: 0.977
17,COc1ccc(NC(=O)Nc2ccc3c(c2)C(=O)N([C@@H](C)CO)C[C@H](C)[C@@H](CN(C)S(=O)(=O)c2ccc(OC)cc2)OCCCC[C@@H](C)O3)cc1,inactive: 1.04
18,CC(=O)N1[C@@H]2Cn3c(cccc3=O)[C@H]1[C@@H](C(=O)N1CCc3ccccc3C1)[C@@H]2CO,inactive: 1
19,C[C@@H]1CN([C@H](C)CO)C(=O)c2cccc(NC(=O)c3ccncc3)c2O[C@@H]1CN(C)Cc1ccc2c(c1)OCO2,inactive: 0.974

row,SMILES,relative growth
1,C[C@H](CO)N1C[C@H](C)[C@H](CN(C)S(=O)(=O)c2ccc(F)cc2)Oc2c(NC(=O)Nc3cccc4ccccc34)cccc2C1=O,inactive: 1
2,C[C@@H]1CN([C@@H](C)CO)C(=O)c2cc(C#CCc3ccccc3)cnc2O[C@@H]1CN(C)C(=O)C1CCOCC1,inactive: 0.97
3,CCCCC[C@@H](O)[C@@H]1C(=O)O[C@H](C)[C@H](O)/C=C/C=C/C=C/C=C/C=C(\C)[C@H](O)C[C@H](O)C[C@H](O)C[C@H](O)C[C@H](O)C[C@H](O)C[C@@H]1O,inactive: 0.99
4,Cc1noc(C)c1NC(=O)Nc1ccc2c(c1)C(=O)N([C@@H](C)CO)C[C@@H](C)[C@@H](CN(C)S(=O)(=O)c1cccs1)OCCCC[C@@H](C)O2,inactive: 1.01
5,CCCCC1=NC2(CCCC2)C(=O)N1Cc1ccc(-c2ccccc2S(=O)(=O)Nc2noc(C)c2C)c(COCC)c1,inactive: 1
6,CC12CCC3c4ccc(O)cc4CCC3C1CCC2=O (configuration not stated),inactive: 1.11
7,Cn1cnc(S(=O)(=O)N2C[C@@H](O)COC[C@H]3O[C@@H](CC(=O)N4CCN(c5ccccc5)CC4)CC[C@@H]32)c1,inactive: 1.02
8,COc1ccc(CN(C)C[C@@H]2Oc3c(NS(=O)(=O)c4cn(C)cn4)cccc3C(=O)N([C@H](C)CO)C[C@@H]2C)cc1,inactive: 0.994
9,CN1CCN(C(=O)C[C@H]2CC[C@H](NC(=O)Cc3ccccn3)[C@@H](CO)O2)CC1,inactive: 1.01
10,CO[C@@H]1CN(C)C(=O)c2cc(NS(C)(=O)=O)ccc2OC[C@@H](C)N(C(=O)C2CCCCC2)C[C@@H]1C,inactive: 0.983
11,COc1ccc(S(=O)(=O)N(C)C[C@@H]2Oc3ccc(NS(=O)(=O)c4ccccc4)cc3CC(=O)N([C@@H](C)CO)C[C@H]2C)cc1,inactive: 1.01
12,C[C@@H]1CN([C@H](C)CO)C(=O)c2cc(NC(=O)Nc3ccc4c(c3)OCO4)ccc2O[C@@H](C)CCCCO[C@H]1CN(C)Cc1ccccc1,inactive: 1.03
13,C[C@@H]1CCCCO[C@@H](CN(C)C(=O)NC2CCCCC2)[C@H](C)CN([C@@H](C)CO)C(=O)c2cc(NC(=O)NC3CCCCC3)ccc2O1,inactive: 1.01
14,COCC(=O)Nc1ccc2c(c1)[C@H]1C[C@H](CC(=O)N3CCOCC3)O[C@H](CO)[C@H]1O2,inactive: 0.995
15,C[C@@H]1CCCCO[C@@H](CN(C)S(=O)(=O)c2cccs2)[C@@H](C)CN([C@H](C)CO)C(=O)c2cc(NC(=O)CCC(F)(F)F)ccc2O1,inactive: 0.962
16,C=CC[C@H](CC(=O)NCCO)C(=O)NC[C@H](OC(=O)[C@@H](CC=C)CC(=O)OC(C)(C)C)c1ccccc1,inactive: 1.01
17,COc1ccc(S(=O)(=O)N(C)C[C@@H]2OCCCC[C@H](C)Oc3ccc(NC(=O)Nc4ccc(F)cc4)cc3C(=O)N([C@H](C)CO)C[C@@H]2C)cc1,inactive: 1.05
18,O=C(C[C@@H]1C[C@@H]2c3cc(NS(=O)(=O)c4ccc(F)cc4)ccc3O[C@@H]2[C@H](CO)O1)NC1CCCC1,inactive: 0.992
